# Measurements as given in the supplement of paper PMC8728848.
# The other results are listed elsewhere or left out.
# B1: Morniga (Morus nigra) (protein)
# chain: MAGTSTNTQTTGTSQTVEVGLWGGPGGNAWDDGSYTGIREINLSHGDAIGAFSVIYDLNGQPFTGPTHPGNEPSFKTVKITLDFPNEFLVSVSGYTGVLPRLATGKDVIRSLTFKTNKKTYGPYGKEEGTPFSLPIENGLIVGFKGRSGFVVDAIGVHLS
# Experiments:
# Test in all cases: glycan array binding signal (z-score within array); higher = stronger binding
# Conditions in all cases: glycan notation: IUPAC condensed, linker removed
# [1] = target: Gal(b1-4)Glc6S
# How it was run: (§1)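 Arrays were curated from the Consortium for Functional Glycomics database, 3228 in total, and kept only where the protein sequence was available. Binding is expressed as a within-array Z-score. This score was averaged across arrays of the same protein sequence at different concentrations or buffers and across linkers, and negative values can be read as non-binding.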
# [2] = target: Gal(b1-4)GlcNAc
# How it was run: as §1
# [3] = target: Gal(b1-4)GlcNAc(a1-6)Gal(b1-4)GlcNAc
# How it was run: as §1
# [4] = target: Gal(b1-4)GlcNAc(b1-2)Man
# How it was run: as §1
# [5] = target: Gal(b1-4)GlcNAc(b1-2)Man(a1-3)Man(b1-4)GlcNAc(b1-4)GlcNAc
# How it was run: as §1
# [6] = target: Gal(b1-4)GlcNAc(b1-2)Man(a1-3)[Gal(b1-4)GlcNAc(b1-2)Man(a1-6)]Man(b1-4)GlcNAc(b1-4)GlcNAc
# How it was run: as §1
# [7] = target: Gal(b1-4)GlcNAc(b1-2)Man(a1-3)[Gal(b1-4)GlcNAc(b1-2)Man(a1-6)]Man(b1-4)GlcNAc(b1-4)[Fuc(a1-6)]GlcNAc
# How it was run: as §1
# [8] = target: Gal(b1-4)GlcNAc(b1-2)Man(a1-3)[Gal(b1-4)GlcNAc(b1-2)][GlcNAc(b1-4)]Man(b1-4)GlcNAc(b1-4)GlcNAc
# How it was run: as §1
# [9] = target: Gal(b1-4)GlcNAc(b1-2)Man(a1-3)[GlcNAc(b1-2)Man(a1-6)]Man(b1-4)GlcNAc(b1-4)GlcNAc
# How it was run: as §1
# [10] = target: Gal(b1-4)GlcNAc(b1-2)Man(a1-3)[Man(a1-6)]Man(b1-4)GlcNAc(b1-4)GlcNAc
# How it was run: as §1
# [11] = target: Gal(b1-4)GlcNAc(b1-2)Man(a1-6)Man(b1-4)GlcNAc(b1-4)GlcNAc
# How it was run: as §1
# [12] = target: Gal(b1-4)GlcNAc(b1-2)Man(a1-6)[GlcNAc(b1-2)Man(a1-3)]Man(b1-4)GlcNAc(b1-4)GlcNAc
# How it was run: as §1
# [13] = target: Gal(b1-4)GlcNAc(b1-2)Man(a1-6)[Man(a1-3)]Man(b1-4)GlcNAc(b1-4)GlcNAc
# How it was run: as §1
# [14] = target: Gal(b1-4)GlcNAc(b1-2)[Gal(b1-4)GlcNAc(b1-4)]Man(a1-3)[Gal(b1-4)GlcNAc(b1-2)Man(a1-6)]Man(b1-4)GlcNAc(b1-4)GlcNAc
# How it was run: as §1
# [15] = target: Gal(b1-4)GlcNAc(b1-2)[Gal(b1-4)GlcNAc(b1-4)]Man(a1-3)[Gal(b1-4)GlcNAc(b1-2)[Gal(b1-4)GlcNAc(b1-6)]Man(a1-6)]Man(b1-4)GlcNAc(b1-4)GlcNAc
# How it was run: as §1
# [16] = target: Gal(b1-4)GlcNAc(b1-2)[Gal(b1-4)GlcNAc(b1-4)]Man(a1-3)[GlcNAc(b1-4)][Gal(b1-4)GlcNAc(b1-2)Man(a1-6)]Man(b1-4)GlcNAc(b1-4)GlcNAc
# How it was run: as §1
# [17] = target: Gal(b1-4)GlcNAc(b1-2)[Gal(b1-4)GlcNAc(b1-4)]Man(a1-3)[GlcNAc(b1-4)][Gal(b1-4)GlcNAc(b1-2)[Gal(b1-4)GlcNAc(b1-6)]Man(a1-6)]Man(b1-4)GlcNAc(b1-4)GlcNAc
# How it was run: as §1
# [18] = target: Gal(b1-4)GlcNAc(b1-2)[Gal(b1-4)GlcNAc(b1-4)]Man(a1-3)[GlcNAc(b1-4)][Gal(b1-4)GlcNAc(b1-2)[Gal(b1-4)GlcNAc(b1-6)]Man(a1-6)]Man(b1-4)GlcNAc(b1-4)[Fuc(a1-6)]GlcNAc
# How it was run: as §1
# [19] = target: Gal(b1-4)GlcNAc(b1-2)[Gal(b1-4)GlcNAc(b1-6)]Man(a1-6)[Gal(b1-4)GlcNAc(b1-2)Man(a1-3)]Man(b1-4)GlcNAc(b1-4)GlcNAc
# How it was run: as §1
# [20] = target: Gal(b1-4)GlcNAc(b1-2)[Gal(b1-4)GlcNAc(b1-6)]Man(a1-6)[Gal(b1-4)GlcNAc(b1-2)Man(a1-3)]Man(b1-4)GlcNAc(b1-4)[Fuc(a1-6)]GlcNAc
# How it was run: as §1
# [21] = target: Gal(b1-4)GlcNAc(b1-2)[Gal(b1-4)GlcNAc(b1-6)]Man(a1-6)[GlcNAc(b1-4)][Gal(b1-4)GlcNAc(b1-2)Man(a1-3)]Man(b1-4)GlcNAc(b1-4)GlcNAc
# How it was run: as §1
# [22] = target: Gal(b1-4)GlcNAc(b1-3)Gal(b1-3)GlcNAc
# How it was run: as §1
# [23] = target: Gal(b1-4)GlcNAc(b1-3)Gal(b1-4)Glc
# How it was run: as §1
# [24] = target: Gal(b1-4)GlcNAc(b1-3)Gal(b1-4)GlcNAc
# How it was run: as §1
# [25] = target: Gal(b1-4)GlcNAc(b1-3)Gal(b1-4)GlcNAc(b1-3)Gal(b1-4)GlcNAc
# How it was run: as §1
# [26] = target: Gal(b1-4)GlcNAc(b1-3)Gal(b1-4)[Fuc(a1-3)GlcNAc(b1-6)]Gal(b1-4)Glc
# How it was run: as §1
# [27] = target: Gal(b1-4)GlcNAc(b1-3)Gal(b1-4)[Fuc(a1-3)]GlcNAc(b1-3)Gal(b1-4)[Fuc(a1-3)]GlcNAc
# How it was run: as §1
# [28] = target: Gal(b1-4)GlcNAc(b1-3)GalNAc
# How it was run: as §1
# [29] = target: Gal(b1-4)GlcNAc(b1-3)[Gal(b1-4)GlcNAc(b1-6)]Gal(b1-4)GlcNAc
# How it was run: as §1
# [30] = target: Gal(b1-4)GlcNAc(b1-3)[Gal(b1-4)GlcNAc(b1-6)]GalNAc
# How it was run: as §1
# [31] = target: Gal(b1-4)GlcNAc(b1-3)[GlcNAc(b1-6)]Gal(b1-4)GlcNAc
# How it was run: as §1
# [32] = target: Gal(b1-4)GlcNAc(b1-6)Gal(b1-4)GlcNAc
# How it was run: as §1
# [33] = target: Gal(b1-4)GlcNAc(b1-6)GalNAc
# How it was run: as §1
# [34] = target: Gal(b1-4)GlcNAc(b1-6)[Gal(b1-3)]GalNAc
# How it was run: as §1
# [35] = target: Gal(b1-4)GlcNAc6P
# How it was run: as §1
# [36] = target: Gal(b1-6)Gal
# How it was run: as §1
# [37] = target: Gal3S(b1-3)GalNAc
# How it was run: as §1
# [38] = target: Gal3S(b1-3)GlcNAc
# How it was run: as §1
# [39] = target: Gal3S(b1-3)[Fuc(a1-4)]GlcNAc
# How it was run: as §1
# [40] = target: Gal3S(b1-4)Glc
# How it was run: as §1
# [41] = target: Gal3S(b1-4)Glc6S
# How it was run: as §1
# [42] = target: Gal3S(b1-4)GlcNAc
# How it was run: as §1
# [43] = target: Gal3S(b1-4)GlcNAc6S
# How it was run: as §1
# [44] = target: Gal3S(b1-4)[Fuc(a1-3)]Glc
# How it was run: as §1
# [45] = target: Gal3S(b1-4)[Fuc(a1-3)]Glc6S
# How it was run: as §1
binder,measurement,setting,value
B1,glycan array binding signal (z-score),[1],-0.338
same,glycan array binding signal (z-score),[2],-0.336
same,glycan array binding signal (z-score),[3],-0.338
same,glycan array binding signal (z-score),[4],-0.333
same,glycan array binding signal (z-score),[5],4.3
same,glycan array binding signal (z-score),[6],3.33
same,glycan array binding signal (z-score),[7],0.968
same,glycan array binding signal (z-score),[8],1.41
same,glycan array binding signal (z-score),[9],2.78
same,glycan array binding signal (z-score),[10],4.49
same,glycan array binding signal (z-score),[11],-0.335
same,glycan array binding signal (z-score),[12],2.39
same,glycan array binding signal (z-score),[13],4.24
same,glycan array binding signal (z-score),[14],0.239
same,glycan array binding signal (z-score),[15],0.204
same,glycan array binding signal (z-score),[16],-0.333
same,glycan array binding signal (z-score),[17],-0.337
same,glycan array binding signal (z-score),[18],-0.324
same,glycan array binding signal (z-score),[19],2.5
same,glycan array binding signal (z-score),[20],1.6
same,glycan array binding signal (z-score),[21],1.45
same,glycan array binding signal (z-score),[22],-0.331
same,glycan array binding signal (z-score),[23],-0.339
same,glycan array binding signal (z-score),[24],-0.339
same,glycan array binding signal (z-score),[25],-0.336
same,glycan array binding signal (z-score),[26],-0.329
same,glycan array binding signal (z-score),[27],-0.324
same,glycan array binding signal (z-score),[28],-0.338
same,glycan array binding signal (z-score),[29],-0.339
same,glycan array binding signal (z-score),[30],-0.334
same,glycan array binding signal (z-score),[31],-0.331
same,glycan array binding signal (z-score),[32],-0.33
same,glycan array binding signal (z-score),[33],-0.331
same,glycan array binding signal (z-score),[34],-0.339
same,glycan array binding signal (z-score),[35],-0.325
same,glycan array binding signal (z-score),[36],-0.326
same,glycan array binding signal (z-score),[37],-0.339
same,glycan array binding signal (z-score),[38],-0.342
same,glycan array binding signal (z-score),[39],-0.33
same,glycan array binding signal (z-score),[40],-0.332
same,glycan array binding signal (z-score),[41],-0.342
same,glycan array binding signal (z-score),[42],-0.335
same,glycan array binding signal (z-score),[43],-0.335
same,glycan array binding signal (z-score),[44],-0.324
same,glycan array binding signal (z-score),[45],-0.294
